These results are taken from the supplement of paper PMC12889115.

The other results are listed elsewhere or left out. Cut-off read from the data, not from the text of the source: active = 25% or less and inactive = the rest. Many values rest on one well or one pass, so single values are uncertain.
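Note: compounds tested were the hits of an earlier 50 µM broth growth screen of a drug-like diversity library run with polymyxin B.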

The assay has as its system Salmonella enterica serovar Typhimurium SL1344. The assay is described as follows: intramacrophage bacterial GFP load (SAFIRE), percent of DMSO control (% of DMSO); higher = more intracellular bacteria (less inhibition). As to conditions: 25 µM; system: infected RAW 264.7 macrophages. On the procedure: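 Secondary screen of the 553 primary hits at 25 µM. (i) S. Typhimurium SL1344 grown in Mueller-Hinton broth with 0.5 µg/mL polymyxin B, OD600 read after 18 h. (ii) SAFIRE assay: RAW 264.7 macrophages infected with S. Typhimurium sifB::gfp (MOI 30); compound added 2 h post-infection; cells fixed at 18 h; GFP-positive pixel fraction per macrophage imaged by confocal microscopy and expressed as % of DMSO control.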
As to `COc1ccc(CC2(CCC(=O)N3CC4(C)CC3CC(C)(C)C4)CCC(=O)N2)c2ccccc12` (centres undefined), the “intramacrophage bacterial GFP load” value is inactive: 29.8.
Regarding `CC(Cc1cccnc1)NC(=O)c1cc(COc2cccc3cnccc23)on1` (centres undefined), the “intramacrophage bacterial GFP load” value is inactive: 156.
The value for `COc1cc(C(=O)N(Cc2cccc(OCCc3cccs3)c2)C2CCCC2)cc(OC)c1OC` was inactive: 109; that for `Cc1ccc2c(c1)CN(CC(=O)NCC1(c3ccccc3)CCOCC1)CC(c1ccsc1)O2` (centres undefined) was inactive: 113.
In the case of `O=C(/C=C/c1cccc(F)c1)N(Cc1ccncc1)Cc1cccc(OCCc2ccc(F)cc2)c1` it was inactive: 45.7; in that of `CCOC(=O)C1(Cc2ccccc2C)CCCN(S(=O)(=O)c2ccsc2)C1` (centres undefined), inactive: 45.5.
In the case of `COc1ccc2c(c1)OC(C)CN(CC(C)Cc1ccc3c(c1)OCO3)C2` (centres undefined), the “intramacrophage bacterial GFP load” value is active: 15.2.
Turning to `CN(Cc1cccc(C(F)(F)F)c1)C(=O)c1ccc2nc(C3CC3)oc2c1`, the “intramacrophage bacterial GFP load” value was inactive: 89.4.
On to `Cc1ccc(OCCN(C)C(=O)C2CC23CCN(Cc2coc4ccccc4c2=O)CC3)cc1` (centres undefined), for which the “intramacrophage bacterial GFP load” value is active: 20.7.
